According to the supplement of paper PMC8728848:
This is one part of the list.

Tests used:
Test in all cases: glycan array binding signal (z-score within array); higher = stronger binding
Settings in all cases: glycan notation: IUPAC condensed, linker removed
[1] = target: Fuc(a1-2)[Gal(a1-3)]Gal(b1-4)GlcNAc(b1-2)Man
Procedure, shortened: (§1)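 The binding signal is a Z-score computed within each array. Data were drawn from 3228 arrays in the Consortium for Functional Glycomics database, restricted to those with a known protein sequence. Scores were averaged over arrays of the same protein sequence at different concentrations or buffers, and over linkers, and negative values can be taken as non-binding.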

[2] = target: Fuc(a1-2)[Gal(a1-3)]Gal(b1-4)GlcNAc(b1-2)Man(a1-3)[Fuc(a1-2)[Gal(a1-3)]Gal(b1-4)GlcNAc(b1-2)Man(a1-6)]Man(b1-4)GlcNAc(b1-4)GlcNAc
Procedure, shortened: as §1

[3] = target: Fuc(a1-2)[Gal(a1-3)]Gal(b1-4)GlcNAc(b1-2)Man(a1-3)[Fuc(a1-2)[Gal(a1-3)]Gal(b1-4)GlcNAc(b1-2)Man(a1-6)]Man(b1-4)GlcNAc(b1-4)[Fuc(a1-6)]GlcNAc
Procedure, shortened: as §1

[4] = target: Fuc(a1-2)[Gal(a1-3)]Gal(b1-4)GlcNAc(b1-3)GalNAc
Procedure, shortened: as §1

[5] = target: Fuc(a1-2)[Gal(a1-3)]Gal(b1-4)GlcNAc(b1-6)GalNAc
Procedure, shortened: as §1

[6] = target: Fuc(a1-2)[Gal(a1-3)]Gal(b1-4)[Fuc(a1-3)]Glc
Procedure, shortened: as §1

[7] = target: Fuc(a1-2)[Gal(a1-3)]Gal(b1-4)[Fuc(a1-3)]GlcNAc
Procedure, shortened: as §1

[8] = target: Fuc(a1-2)[Gal(a1-3)]Gal(b1-4)[Fuc(a1-3)]GlcNAc(b1-3)GalNAc
Procedure, shortened: as §1

[9] = target: Fuc(a1-2)[Gal(a1-4)]Gal(b1-4)GlcNAc
Procedure, shortened: as §1

[10] = target: Fuc(a1-2)[GalNAc(a1-3)]Gal
Procedure, shortened: as §1

[11] = target: Fuc(a1-2)[GalNAc(a1-3)]Gal(b1-3)GalNAc(a1-3)[Fuc(a1-2)]Gal(b1-4)GlcNAc
Procedure, shortened: as §1

[12] = target: Fuc(a1-2)[GalNAc(a1-3)]Gal(b1-3)GalNAc(b1-3)Gal(a1-4)Gal(b1-4)Glc
Procedure, shortened: as §1

[13] = target: Fuc(a1-2)[GalNAc(a1-3)]Gal(b1-3)GlcNAc
Procedure, shortened: as §1

[14] = target: Fuc(a1-2)[GalNAc(a1-3)]Gal(b1-3)GlcNAc(b1-2)Man(a1-3)[Fuc(a1-2)[GalNAc(a1-3)]Gal(b1-3)GlcNAc(b1-2)Man(a1-6)]Man(b1-4)GlcNAc(b1-4)GlcNAc
Procedure, shortened: as §1

[15] = target: Fuc(a1-2)[GalNAc(a1-3)]Gal(b1-3)GlcNAc(b1-2)Man(a1-3)[Fuc(a1-2)[GalNAc(a1-3)]Gal(b1-3)GlcNAc(b1-2)Man(a1-6)]Man(b1-4)GlcNAc(b1-4)[Fuc(a1-6)]GlcNAc
Procedure, shortened: as §1

[16] = target: Fuc(a1-2)[GalNAc(a1-3)]Gal(b1-3)GlcNAc(b1-3)GalNAc
Procedure, shortened: as §1

[17] = target: Fuc(a1-2)[GalNAc(a1-3)]Gal(b1-3)GlcNAc(b1-6)GalNAc
Procedure, shortened: as §1

[18] = target: Fuc(a1-2)[GalNAc(a1-3)]Gal(b1-4)Glc
Procedure, shortened: as §1

[19] = target: Fuc(a1-2)[GalNAc(a1-3)]Gal(b1-4)GlcNAc
Procedure, shortened: as §1

[20] = target: Fuc(a1-2)[GalNAc(a1-3)]Gal(b1-4)GlcNAc(b1-2)Man
Procedure, shortened: as §1

[21] = target: Fuc(a1-2)[GalNAc(a1-3)]Gal(b1-4)GlcNAc(b1-2)Man(a1-3)[Fuc(a1-2)[GalNAc(a1-3)]Gal(b1-4)GlcNAc(b1-2)Man(a1-6)]Man(b1-4)GlcNAc(b1-4)GlcNAc
Procedure, shortened: as §1

[22] = target: Fuc(a1-2)[GalNAc(a1-3)]Gal(b1-4)GlcNAc(b1-2)Man(a1-3)[Fuc(a1-2)[GalNAc(a1-3)]Gal(b1-4)GlcNAc(b1-2)Man(a1-6)]Man(b1-4)GlcNAc(b1-4)[Fuc(a1-6)]GlcNAc
Procedure, shortened: as §1

[23] = target: Fuc(a1-2)[GalNAc(a1-3)]Gal(b1-4)GlcNAc(b1-3)Gal(b1-4)GlcNAc
Procedure, shortened: as §1

[24] = target: Fuc(a1-2)[GalNAc(a1-3)]Gal(b1-4)GlcNAc(b1-3)Gal(b1-4)GlcNAc(b1-3)Gal(b1-4)GlcNAc
Procedure, shortened: as §1

[25] = target: Fuc(a1-2)[GalNAc(a1-3)]Gal(b1-4)GlcNAc(b1-3)GalNAc
Procedure, shortened: as §1

[26] = target: Fuc(a1-2)[GalNAc(a1-3)]Gal(b1-4)GlcNAc(b1-3)[Fuc(a1-2)[GalNAc(a1-3)]Gal(b1-4)GlcNAc(b1-6)]GalNAc
Procedure, shortened: as §1

[27] = target: Fuc(a1-2)[GalNAc(a1-3)]Gal(b1-4)GlcNAc(b1-6)GalNAc
Procedure, shortened: as §1

[28] = target: Fuc(a1-2)[GalNAc(a1-3)]Gal(b1-4)[Fuc(a1-3)]GlcNAc
Procedure, shortened: as §1

[29] = target: Fuc(a1-2)[GalNAc(a1-3)]Gal(b1-4)[Fuc(a1-3)]GlcNAc(b1-3)GalNAc
Procedure, shortened: as §1

[30] = target: Fuc(a1-2)[GalNAc(a1-4)]Gal(b1-4)GlcNAc
Procedure, shortened: as §1

[31] = target: Fuc(a1-2)[GalNAc(b1-3)]Gal
Procedure, shortened: as §1

[32] = target: Fuc(a1-3)GlcNAc
Procedure, shortened: as §1

[33] = target: Fuc(a1-3)[Gal(b1-4)]Glc6S
Procedure, shortened: as §1

[34] = target: Fuc(a1-3)[Gal(b1-4)]GlcNAc
Procedure, shortened: as §1

[35] = target: Fuc(a1-3)[Gal(b1-4)]GlcNAc(b1-2)Man
Procedure, shortened: as §1

[36] = target: Fuc(a1-3)[Gal(b1-4)]GlcNAc(b1-2)Man(a1-3)[Fuc(a1-3)[Gal(b1-4)]GlcNAc(b1-2)Man(a1-6)]Man(b1-4)GlcNAc(b1-4)GlcNAc
Procedure, shortened: as §1

[37] = target: Fuc(a1-3)[Gal(b1-4)]GlcNAc(b1-2)Man(a1-3)[Fuc(a1-3)[Gal(b1-4)]GlcNAc(b1-2)Man(a1-6)]Man(b1-4)GlcNAc(b1-4)[Fuc(a1-6)]GlcNAc
Procedure, shortened: as §1

[38] = target: Fuc(a1-3)[Gal(b1-4)]GlcNAc(b1-3)Gal(b1-3)[Fuc(a1-4)]GlcNAc
Procedure, shortened: as §1

[39] = target: Fuc(a1-3)[Gal(b1-4)]GlcNAc(b1-3)Gal(b1-4)[Fuc(a1-3)]GlcNAc
Procedure, shortened: as §1

[40] = target: Fuc(a1-3)[Gal(b1-4)]GlcNAc(b1-3)Gal(b1-4)[Fuc(a1-3)]GlcNAc(b1-3)Gal(b1-4)[Fuc(a1-3)]GlcNAc
Procedure, shortened: as §1

[41] = target: Fuc(a1-3)[Gal(b1-4)]GlcNAc(b1-3)GalNAc
Procedure, shortened: as §1

[42] = target: Fuc(a1-3)[Gal(b1-4)]GlcNAc(b1-4)Gal(b1-4)[Fuc(a1-3)]GlcNAc
Procedure, shortened: as §1

[43] = target: Fuc(a1-3)[Gal(b1-4)]GlcNAc(b1-4)Gal(b1-4)[Fuc(a1-3)]GlcNAc(b1-4)Gal(b1-4)[Fuc(a1-3)]GlcNAc
Procedure, shortened: as §1

[44] = target: Fuc(a1-3)[Gal(b1-4)]GlcNAc(b1-6)GalNAc
Procedure, shortened: as §1

[45] = target: Fuc(a1-3)[Gal(b1-4)]GlcNAc(b1-6)[Gal(b1-3)GlcNAc(b1-3)]Gal(b1-4)Glc
Procedure, shortened: as §1

[46] = target: Fuc(a1-3)[Gal(b1-4)]GlcNAc6S
Procedure, shortened: as §1

[47] = target: Fuc(a1-3)[Gal3S(b1-4)]Glc
Procedure, shortened: as §1

[48] = target: Fuc(a1-3)[Gal3S(b1-4)]GlcNAc
Procedure, shortened: as §1

[49] = target: Fuc(a1-3)[Gal3S(b1-4)]GlcNAc6S
Procedure, shortened: as §1

[50] = target: Fuc(a1-3)[GalNAc(b1-4)]GlcNAc
Procedure, shortened: as §1

[51] = target: Fuc(a1-3)[GalNAc(b1-4)]GlcNAc6S
Procedure, shortened: as §1

[52] = target: Fuc(a1-4)GlcNAc
Procedure, shortened: as §1

[53] = target: Fuc(b1-3)GlcNAc
Procedure, shortened: as §1

[54] = target: Gal(a1-2)Gal
Procedure, shortened: as §1

[55] = target: Gal(a1-3)Gal
Procedure, shortened: as §1

[56] = target: Gal(a1-3)Gal(b1-3)GlcNAc
Procedure, shortened: as §1

[57] = target: Gal(a1-3)Gal(b1-3)GlcNAc(b1-2)Man
Procedure, shortened: as §1

[58] = target: Gal(a1-3)Gal(b1-3)GlcNAc(b1-2)Man(a1-3)[Gal(a1-3)Gal(b1-3)GlcNAc(b1-2)Man(a1-6)]Man(b1-4)GlcNAc(b1-4)GlcNAc
Procedure, shortened: as §1

[59] = target: Gal(a1-3)Gal(b1-3)GlcNAc(b1-3)GalNAc
Procedure, shortened: as §1

[60] = target: Gal(a1-3)Gal(b1-3)GlcNAc(b1-6)GalNAc
Procedure, shortened: as §1

B1: SJA (Sophora japonica) (protein)
chain: FLGLFNSGGYSSSYQIVAVEFDTYINEWDPKTRHIGIDINSINSTKTVTWGWENGEVAIVLISYKAATETLTVSLTYPSSQTSYILSAAVDLKSILPEWVRIGF
- glycan array binding signal (z-score) [1]: 0.192
- glycan array binding signal (z-score) [2]: 4.98
- glycan array binding signal (z-score) [3]: 0.742
- glycan array binding signal (z-score) [4]: 0.012
- glycan array binding signal (z-score) [5]: -0.097
- glycan array binding signal (z-score) [6]: 0.192
- glycan array binding signal (z-score) [7]: 6.46
- glycan array binding signal (z-score) [8]: -0.176
- glycan array binding signal (z-score) [9]: -0.165
- glycan array binding signal (z-score) [10]: -0.225
- glycan array binding signal (z-score) [11]: -0.406
- glycan array binding signal (z-score) [12]: -0.202
- glycan array binding signal (z-score) [13]: -0.195
- glycan array binding signal (z-score) [14]: -0.074
- glycan array binding signal (z-score) [15]: -0.14
- glycan array binding signal (z-score) [16]: -0.086
- glycan array binding signal (z-score) [17]: -0.332
- glycan array binding signal (z-score) [18]: -0.2
- glycan array binding signal (z-score) [19]: -0.109
- glycan array binding signal (z-score) [20]: -0.18
- glycan array binding signal (z-score) [21]: 0.157
- glycan array binding signal (z-score) [22]: -0.233
- glycan array binding signal (z-score) [23]: -0.057
- glycan array binding signal (z-score) [24]: 0.248
- glycan array binding signal (z-score) [25]: -0.022
- glycan array binding signal (z-score) [26]: 0.045
- glycan array binding signal (z-score) [27]: -0.199
- glycan array binding signal (z-score) [28]: 0.186
- glycan array binding signal (z-score) [29]: -0.065
- glycan array binding signal (z-score) [30]: 0.006
- glycan array binding signal (z-score) [31]: -0.221
- glycan array binding signal (z-score) [32]: -0.221
- glycan array binding signal (z-score) [33]: 0.165
- glycan array binding signal (z-score) [34]: -0.171
- glycan array binding signal (z-score) [35]: -0.248
- glycan array binding signal (z-score) [36]: -0.2
- glycan array binding signal (z-score) [37]: -0.25
- glycan array binding signal (z-score) [38]: -0.077
- glycan array binding signal (z-score) [39]: -0.225
- glycan array binding signal (z-score) [40]: -0.319
- glycan array binding signal (z-score) [41]: -0.212
- glycan array binding signal (z-score) [42]: -0.181
- glycan array binding signal (z-score) [43]: -0.187
- glycan array binding signal (z-score) [44]: -0.083
- glycan array binding signal (z-score) [45]: -0.104
- glycan array binding signal (z-score) [46]: -0.016
- glycan array binding signal (z-score) [47]: -0.21
- glycan array binding signal (z-score) [48]: 0.064
- glycan array binding signal (z-score) [49]: -0.061
- glycan array binding signal (z-score) [50]: -0.273
- glycan array binding signal (z-score) [51]: 0
- glycan array binding signal (z-score) [52]: -0.331
- glycan array binding signal (z-score) [53]: -0.236
- glycan array binding signal (z-score) [54]: -0.201
- glycan array binding signal (z-score) [55]: -0.043
- glycan array binding signal (z-score) [56]: -0.041
- glycan array binding signal (z-score) [57]: -0.284
- glycan array binding signal (z-score) [58]: -0.04
- glycan array binding signal (z-score) [59]: -0.269
- glycan array binding signal (z-score) [60]: -0.312
